Assay results from patent publication US20240392031A1 (BICARA THERAPEUTICS, published 2024).

B1: BCA376, anti-hCAIX hIL-12 fusion protein (hIL-12p40 F82A, K217A) (other)
heavy 1: EVRLVESGGGLVKPGGSLRLSCAASGFTFSNYYMSWIRQAPEKRLELVSAINSDGGITYYLDTVKGRFTISRDNAKNSLYLQMNSLRAEDTALFYCARHRSGYFSMDYWGQGTSVTVSS[human IgG1 constant region with changes left out here]GGGGSGGGGSGGGGSIWELKKDVYVVELDWYPDAPGEMVVLTCDTPEEDGITWTLDQSSEVLGSGKTLTIQVKEAGDAGQYTCHKGGEVLSHSLLLLHKKEDGIWSTDILKDQKEPKNKTFLRCEAKNYSGRFTCWWLTTISTDLTFSVKSSRGSSDPQGVTCGAATLSAERVRGDNKEYEYSVECQEDSACPAAEESLPIEVMVDAVHALKYENYTSSFFIRDIIKPDPPKNLQLKPLKNSRQVEVSWEYPDTWSTPHSYFSLTFCVQVQGKSKREKKDRVFTDKTSATVICRKNASISVRAQDRYYSSSWSEWASVPCS
heavy 2: EVRLVESGGGLVKPGGSLRLSCAASGFTFSNYYMSWIRQAPEKRLELVSAINSDGGITYYLDTVKGRFTISRDNAKNSLYLQMNSLRAEDTALFYCARHRSGYFSMDYWGQGTSVTVSSASTKGPSVFPLAPSSKSTSGGTAALGCLVKDYFPEPVTVSWNSGALTSGVHTFPAVLQSSGLYSLSSVVTVPSSSLGTQTYICNVNHKPSNTKVDKKV[human IgG1 Fc with changes left out here]GGGGSGGGGSGGGGSRNLPVATPDPGMFPCLHHSQNLLRAVSNMLQKARQTLEFYPCTSEEIDHEDITKDKTSTVEACLPLELTKNESCLNSRETSFITNGSCLASRKTSFMMALCLSSIYEDLKMYQVEFKTMNAKLLMDPKRQIFLDQNMLAVIDELMQALNFNSETVPQKSSLEEPDFYKTKIKLCILLHAFRIRAVTIDRVMSYLNAS
light: EIVMTQSPATLSVSPGERATLSCKASQNVVSAVAWYQQKPGQSPRLLIYSASNRYTGIPARFSGSGSGTEFTLTISSLQSEDFAAYYCQQYRNYPWTFGGGTKVEIKRTVAAPSVFIFPPSDEQLKSGTASVVCLLNNFYPREAKVQWKVDNALQSGNSQESVTEQDSKDSTYSLSSTLTLSKADYEKHKVYACEVTHQGLSSPVTKSFNRGEC
B2: BCA375, anti-hCAIX hIL-12 fusion protein (hIL-12p40 W37A, K219A) (other)
heavy 1: EVRLVESGGGLVKPGGSLRLSCAASGFTFSNYYMSWIRQAPEKRLELVSAINSDGGITYYLDTVKGRFTISRDNAKNSLYLQMNSLRAEDTALFYCARHRSGYFSMDYWGQGTSVTVSS[human IgG1 constant region with changes left out here]GGGGSGGGGSGGGGSIWELKKDVYVVELDAYPDAPGEMVVLTCDTPEEDGITWTLDQSSEVLGSGKTLTIQVKEFGDAGQYTCHKGGEVLSHSLLLLHKKEDGIWSTDILKDQKEPKNKTFLRCEAKNYSGRFTCWWLTTISTDLTFSVKSSRGSSDPQGVTCGAATLSAERVRGDNKEYEYSVECQEDSACPAAEESLPIEVMVDAVHKLAYENYTSSFFIRDIIKPDPPKNLQLKPLKNSRQVEVSWEYPDTWSTPHSYFSLTFCVQVQGKSKREKKDRVFTDKTSATVICRKNASISVRAQDRYYSSSWSEWASVPCS
heavy 2: EVRLVESGGGLVKPGGSLRLSCAASGFTFSNYYMSWIRQAPEKRLELVSAINSDGGITYYLDTVKGRFTISRDNAKNSLYLQMNSLRAEDTALFYCARHRSGYFSMDYWGQGTSVTVSSASTKGPSVFPLAPSSKSTSGGTAALGCLVKDYFPEPVTVSWNSGALTSGVHTFPAVLQSSGLYSLSSVVTVPSSSLGTQTYICNVNHKPSNTKVDKKV[human IgG1 Fc with changes left out here]GGGGSGGGGSGGGGSRNLPVATPDPGMFPCLHHSQNLLRAVSNMLQKARQTLEFYPCTSEEIDHEDITKDKTSTVEACLPLELTKNESCLNSRETSFITNGSCLASRKTSFMMALCLSSIYEDLKMYQVEFKTMNAKLLMDPKRQIFLDQNMLAVIDELMQALNFNSETVPQKSSLEEPDFYKTKIKLCILLHAFRIRAVTIDRVMSYLNAS
light: B1 light
B3: BCA371, anti-hCAIX hIL-12 fusion protein (hIL-12p40 K217A) (other)
heavy 1: EVRLVESGGGLVKPGGSLRLSCAASGFTFSNYYMSWIRQAPEKRLELVSAINSDGGITYYLDTVKGRFTISRDNAKNSLYLQMNSLRAEDTALFYCARHRSGYFSMDYWGQGTSVTVSS[human IgG1 constant region with changes left out here]GGGGSGGGGSGGGGSIWELKKDVYVVELDWYPDAPGEMVVLTCDTPEEDGITWTLDQSSEVLGSGKTLTIQVKEFGDAGQYTCHKGGEVLSHSLLLLHKKEDGIWSTDILKDQKEPKNKTFLRCEAKNYSGRFTCWWLTTISTDLTFSVKSSRGSSDPQGVTCGAATLSAERVRGDNKEYEYSVECQEDSACPAAEESLPIEVMVDAVHALKYENYTSSFFIRDIIKPDPPKNLQLKPLKNSRQVEVSWEYPDTWSTPHSYFSLTFCVQVQGKSKREKKDRVFTDKTSATVICRKNASISVRAQDRYYSSSWSEWASVPCS
heavy 2: EVRLVESGGGLVKPGGSLRLSCAASGFTFSNYYMSWIRQAPEKRLELVSAINSDGGITYYLDTVKGRFTISRDNAKNSLYLQMNSLRAEDTALFYCARHRSGYFSMDYWGQGTSVTVSSASTKGPSVFPLAPSSKSTSGGTAALGCLVKDYFPEPVTVSWNSGALTSGVHTFPAVLQSSGLYSLSSVVTVPSSSLGTQTYICNVNHKPSNTKVDKKV[human IgG1 Fc with changes left out here]GGGGSGGGGSGGGGSRNLPVATPDPGMFPCLHHSQNLLRAVSNMLQKARQTLEFYPCTSEEIDHEDITKDKTSTVEACLPLELTKNESCLNSRETSFITNGSCLASRKTSFMMALCLSSIYEDLKMYQVEFKTMNAKLLMDPKRQIFLDQNMLAVIDELMQALNFNSETVPQKSSLEEPDFYKTKIKLCILLHAFRIRAVTIDRVMSYLNAS
light: B1 light
B4: BCA377, anti-hCAIX hIL-12 fusion protein (hIL-12p40 F82A, K219A) (other)
heavy 1: EVRLVESGGGLVKPGGSLRLSCAASGFTFSNYYMSWIRQAPEKRLELVSAINSDGGITYYLDTVKGRFTISRDNAKNSLYLQMNSLRAEDTALFYCARHRSGYFSMDYWGQGTSVTVSS[human IgG1 constant region with changes left out here]GGGGSGGGGSGGGGSIWELKKDVYVVELDWYPDAPGEMVVLTCDTPEEDGITWTLDQSSEVLGSGKTLTIQVKEAGDAGQYTCHKGGEVLSHSLLLLHKKEDGIWSTDILKDQKEPKNKTFLRCEAKNYSGRFTCWWLTTISTDLTFSVKSSRGSSDPQGVTCGAATLSAERVRGDNKEYEYSVECQEDSACPAAEESLPIEVMVDAVHKLAYENYTSSFFIRDIIKPDPPKNLQLKPLKNSRQVEVSWEYPDTWSTPHSYFSLTFCVQVQGKSKREKKDRVFTDKTSATVICRKNASISVRAQDRYYSSSWSEWASVPCS
heavy 2: EVRLVESGGGLVKPGGSLRLSCAASGFTFSNYYMSWIRQAPEKRLELVSAINSDGGITYYLDTVKGRFTISRDNAKNSLYLQMNSLRAEDTALFYCARHRSGYFSMDYWGQGTSVTVSSASTKGPSVFPLAPSSKSTSGGTAALGCLVKDYFPEPVTVSWNSGALTSGVHTFPAVLQSSGLYSLSSVVTVPSSSLGTQTYICNVNHKPSNTKVDKKV[human IgG1 Fc with changes left out here]GGGGSGGGGSGGGGSRNLPVATPDPGMFPCLHHSQNLLRAVSNMLQKARQTLEFYPCTSEEIDHEDITKDKTSTVEACLPLELTKNESCLNSRETSFITNGSCLASRKTSFMMALCLSSIYEDLKMYQVEFKTMNAKLLMDPKRQIFLDQNMLAVIDELMQALNFNSETVPQKSSLEEPDFYKTKIKLCILLHAFRIRAVTIDRVMSYLNAS
light: B1 light

target: T1, human IL-12 receptor (hIL-12R), heterodimer of hIL-12Rβ1 and hIL-12Rβ2 (human, UniProt P42701 24-662; Q99665 24-862); assay: cell-based or functional assay

Binder | Fold Attenuation (Over Fc-IL-12 Control); HEK-Blue IL-12 reporter assay [fold]
B1 | 214
B2 | 319
B3 | 2
B4 | 460

target: T1, human IL-12 receptor (hIL-12R), …; assay: cell-based or functional assay; remark: another data set of the same source

Binder | HEK-IL12 reporter assay Attenuation (summary table) [fold]
B1 | 214
B2 | 319
B3 | 2
B4 | 460
